{"source": "the supplement of paper PMC10126150", "note": "Sequences with one replicate were seen in a single cluster, so their values are uncertain.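 Further: ATP exposure 15 min at 22 °C before imaging.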", "data": [{"test_system": "ATP", "assay": "switch fluorescence ratio, 500 uM ATP over buffer (Cy3 cluster intensity, sum of 5 cycles each) (fold (ratio)); higher = stronger signal-on switching upon ATP binding; sequences stand for … in TCGTCGGCAGCGTCAGATGTGTATAAGAGACAGTTTTTTTTTTTTTTTTTTTTTTTTT…TC", "details": "aptamer strand: ATP DNA aptamer (quencher-CACCTGGGGGAGTATTGCGGAGGAAGG + anchor), 100 nM annealed; ATP concentration: 500 uM; one replicate", "outline": "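Cy3-labelled switching-strand clusters on a modified Illumina MiSeq flow-cell were annealed to 100 nM quencher-labelled ATP aptamer and imaged first in selection buffer, then after 15 min with 500 uM ATP at 22 °C. NaOH stripping and re-annealing separated each of five buffer/ATP cycles, and clusters outside 100-1000 RFU were excluded. The fluorescence ratio sums target-cycle Cy3 intensity over buffer-cycle Cy3 intensity per cluster and averages it per switch-domain sequence.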", "values": [{"sequence": "GGCGACGTA", "switch fluorescence ratio": 1.01}, {"sequence": "GGCGACTTAC", "switch fluorescence ratio": 1.12}, {"sequence": "GGCGAGCAAG", "switch fluorescence ratio": 0.992}, {"sequence": "GGCGAGTGTG", "switch fluorescence ratio": 1.02}, {"sequence": "GGCGATCTCC", "switch fluorescence ratio": 1.6}, {"sequence": "GGCGATGAAT", "switch fluorescence ratio": 1.01}, {"sequence": "GGCGATGGCG", "switch fluorescence ratio": 1.01}, {"sequence": "GGCGCAGCGG", "switch fluorescence ratio": 1.03}, {"sequence": "GGCGCATGAA", "switch fluorescence ratio": 1.03}, {"sequence": "GGCGCATTGT", "switch fluorescence ratio": 1.05}, {"sequence": "GGCGCCCAAA", "switch fluorescence ratio": 0.993}, {"sequence": "GGCGCGCCTC", "switch fluorescence ratio": 0.986}, {"sequence": "GGCGCGGAAT", "switch fluorescence ratio": 1.05}, {"sequence": "GGCGCTGTGT", "switch fluorescence ratio": 0.965}, {"sequence": "GGCGCTTTGG", "switch fluorescence ratio": 1.06}, {"sequence": "GGCGGACATG", "switch fluorescence ratio": 1.02}, {"sequence": "GGCGGACTGA", "switch fluorescence ratio": 0.992}, {"sequence": "GGCGGAGACA", "switch fluorescence ratio": 0.978}, {"sequence": "GGCGGCAGTG", "switch fluorescence ratio": 1.01}, {"sequence": "GGCGGCCGAC", "switch fluorescence ratio": 1.01}, {"sequence": "GGCGGGAGC", "switch fluorescence ratio": 0.974}, {"sequence": "GGCGGGCCCG", "switch fluorescence ratio": 0.982}, {"sequence": "GGCGGGTTAA", "switch fluorescence ratio": 1.01}, {"sequence": "GGCGGTATTG", "switch fluorescence ratio": 1.01}, {"sequence": "GGCGGTGGGA", "switch fluorescence ratio": 0.987}, {"sequence": "GGCGTAAGTT", "switch fluorescence ratio": 0.978}, {"sequence": "GGCGTGACGT", "switch fluorescence ratio": 0.97}, {"sequence": "GGCGTGATA", "switch fluorescence ratio": 1.21}, {"sequence": "GGCGTGCAGA", "switch fluorescence ratio": 1.01}, {"sequence": "GGCGTTCTCG", "switch fluorescence ratio": 1.03}, {"sequence": "GGCGTTTGTA", "switch fluorescence ratio": 1.01}, {"sequence": "GGCGTTTTCT", "switch fluorescence ratio": 0.976}, {"sequence": "GGCTAATGCA", "switch fluorescence ratio": 0.949}, {"sequence": "GGCTAATTGA", "switch fluorescence ratio": 0.964}, {"sequence": "GGCTACAGAT", "switch fluorescence ratio": 0.994}, {"sequence": "GGCTACCACG", "switch fluorescence ratio": 1.08}, {"sequence": "GGCTACCCCT", "switch fluorescence ratio": 1.08}, {"sequence": "GGCTACGAGT", "switch fluorescence ratio": 1.03}, {"sequence": "GGCTACGATC", "switch fluorescence ratio": 1.04}, {"sequence": "GGCTATACGT", "switch fluorescence ratio": 1.15}, {"sequence": "GGCTATGGAG", "switch fluorescence ratio": 0.998}, {"sequence": "GGCTATTGAA", "switch fluorescence ratio": 1.02}, {"sequence": "GGCTATTGTT", "switch fluorescence ratio": 0.985}, {"sequence": "GGCTATTTGC", "switch fluorescence ratio": 1.01}, {"sequence": "GGCTCAAACC", "switch fluorescence ratio": 1.03}, {"sequence": "GGCTCAATTG", "switch fluorescence ratio": 1}, {"sequence": "GGCTCAGATC", "switch fluorescence ratio": 1.02}, {"sequence": "GGCTCAGTCG", "switch fluorescence ratio": 0.988}, {"sequence": "GGCTCAGTGG", "switch fluorescence ratio": 1.03}, {"sequence": "GGCTCATGCC", "switch fluorescence ratio": 1.55}, {"sequence": "GGCTCCAGGA", "switch fluorescence ratio": 1.05}, {"sequence": "GGCTCCGTAT", "switch fluorescence ratio": 1.22}, {"sequence": "GGCTCCTGTC", "switch fluorescence ratio": 1.05}, {"sequence": "GGCTCTAGAC", "switch fluorescence ratio": 1.04}, {"sequence": "GGCTCTGCG", "switch fluorescence ratio": 1}, {"sequence": "GGCTCTTGGT", "switch fluorescence ratio": 0.97}, {"sequence": "GGCTCTTTAG", "switch fluorescence ratio": 1.01}, {"sequence": "GGCTGACACG", "switch fluorescence ratio": 0.948}, {"sequence": "GGCTGAGTCT", "switch fluorescence ratio": 1.06}, {"sequence": "GGCTGGCAAG", "switch fluorescence ratio": 1.02}, {"sequence": "GGCTGGTTAC", "switch fluorescence ratio": 1.04}, {"sequence": "GGCTGTTAGC", "switch fluorescence ratio": 0.986}, {"sequence": "GGCTGTTGAA", "switch fluorescence ratio": 0.968}, {"sequence": "GGCTTAACGT", "switch fluorescence ratio": 0.995}, {"sequence": "GGCTTAATTT", "switch fluorescence ratio": 1}, {"sequence": "GGCTTCCATT", "switch fluorescence ratio": 1.02}, {"sequence": "GGCTTCGACA", "switch fluorescence ratio": 1.02}, {"sequence": "GGCTTCGAGC", "switch fluorescence ratio": 0.995}, {"sequence": "GGCTTGCGAA", "switch fluorescence ratio": 1.02}, {"sequence": "GGCTTGTAGT", "switch fluorescence ratio": 1.01}, {"sequence": "GGCTTTACGA", "switch fluorescence ratio": 1.02}, {"sequence": "GGCTTTACTG", "switch fluorescence ratio": 0.95}, {"sequence": "GGCTTTCAAT", "switch fluorescence ratio": 1.01}, {"sequence": "GGGAAAGCTC", "switch fluorescence ratio": 0.996}, {"sequence": "GGGAAATGG", "switch fluorescence ratio": 1.09}, {"sequence": "GGGAACATCA", "switch fluorescence ratio": 1.03}, {"sequence": "GGGAAGATCA", "switch fluorescence ratio": 1.03}, {"sequence": "GGGAAGTAGG", "switch fluorescence ratio": 1}, {"sequence": "GGGAATGGTT", "switch fluorescence ratio": 1}, {"sequence": "GGGAATTGCT", "switch fluorescence ratio": 0.981}, {"sequence": "GGGACAATAA", "switch fluorescence ratio": 1.07}, {"sequence": "GGGACATATA", "switch fluorescence ratio": 1.04}, {"sequence": "GGGACATGGC", "switch fluorescence ratio": 1.02}, {"sequence": "GGGACCATGG", "switch fluorescence ratio": 1.02}, {"sequence": "GGGACCCAGT", "switch fluorescence ratio": 1.04}, {"sequence": "GGGACCGAAA", "switch fluorescence ratio": 1.06}, {"sequence": "GGGACGAGAG", "switch fluorescence ratio": 1.03}, {"sequence": "GGGACGATTC", "switch fluorescence ratio": 0.992}, {"sequence": "GGGACGGCTA", "switch fluorescence ratio": 0.99}, {"sequence": "GGGACTGTG", "switch fluorescence ratio": 1.02}, {"sequence": "GGGACTTTGT", "switch fluorescence ratio": 1.02}, {"sequence": "GGGAGAGCCC", "switch fluorescence ratio": 0.993}, {"sequence": "GGGAGAT", "switch fluorescence ratio": 1.01}, {"sequence": "GGGAGCCGTT", "switch fluorescence ratio": 1.05}, {"sequence": "GGGAGTCCGG", "switch fluorescence ratio": 0.991}, {"sequence": "GGGAGTCTCA", "switch fluorescence ratio": 1.01}, {"sequence": "GGGAGTGTTA", "switch fluorescence ratio": 0.982}, {"sequence": "GGGATAATCG", "switch fluorescence ratio": 1.02}, {"sequence": "GGGATATATA", "switch fluorescence ratio": 1.07}, {"sequence": "GGGATCCTAT", "switch fluorescence ratio": 0.983}, {"sequence": "GGGATGCAA", "switch fluorescence ratio": 0.971}, {"sequence": "GGGATGCACG", "switch fluorescence ratio": 0.939}, {"sequence": "GGGATTCGGT", "switch fluorescence ratio": 1.01}, {"sequence": "GGGCAATGTG", "switch fluorescence ratio": 0.995}, {"sequence": "GGGCACCAAA", "switch fluorescence ratio": 0.999}, {"sequence": "GGGCACCTAT", "switch fluorescence ratio": 0.989}, {"sequence": "GGGCACGGGC", "switch fluorescence ratio": 0.959}, {"sequence": "GGGCAGGAGT", "switch fluorescence ratio": 1}, {"sequence": "GGGCATTCAC", "switch fluorescence ratio": 1.15}, {"sequence": "GGGCCAACAG", "switch fluorescence ratio": 0.956}, {"sequence": "GGGCCACCGT", "switch fluorescence ratio": 1}, {"sequence": "GGGCCACCTG", "switch fluorescence ratio": 0.992}, {"sequence": "GGGCCATCCC", "switch fluorescence ratio": 0.975}, {"sequence": "GGGCCATCCT", "switch fluorescence ratio": 1.02}, {"sequence": "GGGCCCCAGG", "switch fluorescence ratio": 1.19}, {"sequence": "GGGCCCGCAT", "switch fluorescence ratio": 1.11}, {"sequence": "GGGCCTATGC", "switch fluorescence ratio": 0.985}, {"sequence": "GGGCCTTACT", "switch fluorescence ratio": 1.23}, {"sequence": "GGGCGATAAG", "switch fluorescence ratio": 0.984}, {"sequence": "GGGCGCCGTC", "switch fluorescence ratio": 0.962}, {"sequence": "GGGCGGCTTC", "switch fluorescence ratio": 1.04}, {"sequence": "GGGCGGGAGA", "switch fluorescence ratio": 0.969}, {"sequence": "GGGCGGTCGT", "switch fluorescence ratio": 0.97}, {"sequence": "GGGCGTGAGT", "switch fluorescence ratio": 1.04}, {"sequence": "GGGCGTTACG", "switch fluorescence ratio": 0.967}, {"sequence": "GGGCGTTCGT", "switch fluorescence ratio": 0.924}, {"sequence": "GGGCTACGCT", "switch fluorescence ratio": 0.99}, {"sequence": "GGGCTCGTTT", "switch fluorescence ratio": 0.974}, {"sequence": "GGGCTTGAA", "switch fluorescence ratio": 0.961}, {"sequence": "GGGCTTGATG", "switch fluorescence ratio": 1.02}, {"sequence": "GGGCTTGTAC", "switch fluorescence ratio": 1.02}, {"sequence": "GGGCTTTTTG", "switch fluorescence ratio": 1.01}, {"sequence": "GGGGAAAGAT", "switch fluorescence ratio": 0.921}, {"sequence": "GGGGAAAGG", "switch fluorescence ratio": 0.989}, {"sequence": "GGGGAAGGAC", "switch fluorescence ratio": 1.03}, {"sequence": "GGGGACACCC", "switch fluorescence ratio": 1.02}, {"sequence": "GGGGACAGAC", "switch fluorescence ratio": 1.07}, {"sequence": "GGGGACCGTT", "switch fluorescence ratio": 0.992}, {"sequence": "GGGGACCTAA", "switch fluorescence ratio": 1}, {"sequence": "GGGGACTGTT", "switch fluorescence ratio": 0.953}, {"sequence": "GGGGAGAAAA", "switch fluorescence ratio": 0.986}, {"sequence": "GGGGAGATTG", "switch fluorescence ratio": 0.995}, {"sequence": "GGGGAGGGTT", "switch fluorescence ratio": 1.05}, {"sequence": "GGGGATCGGA", "switch fluorescence ratio": 0.997}, {"sequence": "GGGGATGGAG", "switch fluorescence ratio": 0.96}, {"sequence": "GGGGATGTTC", "switch fluorescence ratio": 0.974}, {"sequence": "GGGGCACATG", "switch fluorescence ratio": 0.983}, {"sequence": "GGGGCATCGA", "switch fluorescence ratio": 1.04}, {"sequence": "GGGGCATTAA", "switch fluorescence ratio": 0.97}, {"sequence": "GGGGCCAGAG", "switch fluorescence ratio": 1.01}, {"sequence": "GGGGCCCAAG", "switch fluorescence ratio": 0.972}, {"sequence": "GGGGCCCAGT", "switch fluorescence ratio": 0.988}, {"sequence": "GGGGCCGCTG", "switch fluorescence ratio": 0.981}]}]}
